Results are given in words; binding and its absence hold for the method and conditions named. For some assays here: In cells and extracts the contact can be indirect. Some entries that bind do so weakly or less than the wild type.
How the values were obtained:
[1] = molecular target: AtAP1 (APETALA1), in pGBKT7 (Arabidopsis thaliana) (UniProt P35631); test: two-hybrid; yeast two-hybrid, colonies on deficient media; AtSEP3 forms in pGADT7, AtAP1 in pGBKT7
[2] = molecular target: AtAP1 (APETALA1), in pGBKT7 (Arabidopsis thaliana) (UniProt P35631); test: two-hybrid; β-galactosidase activity (ONPG) of the yeast two-hybrid colonies in liquid culture; Z-buffer pH 7.0, 30°C, 10 min; control AD + BD
[3] = molecular target: AtAP1, in pSPYNE-35S/PUC (BiFC) (Arabidopsis thaliana) (UniProt P35631); test: split reporter; BiFC in the lower epidermis of tobacco leaves, Agrobacterium cultures mixed 1:1; confocal microscopy, excitation 488 nm, emission 505–530 nm

Amino acid sequences for entries named in this document (tags omitted). A change or cut given only in a name is not applied to a line headed by its entry. Chains listed by the source or under a name are the forms on record and can include a tag or linker.
UniProt P35631: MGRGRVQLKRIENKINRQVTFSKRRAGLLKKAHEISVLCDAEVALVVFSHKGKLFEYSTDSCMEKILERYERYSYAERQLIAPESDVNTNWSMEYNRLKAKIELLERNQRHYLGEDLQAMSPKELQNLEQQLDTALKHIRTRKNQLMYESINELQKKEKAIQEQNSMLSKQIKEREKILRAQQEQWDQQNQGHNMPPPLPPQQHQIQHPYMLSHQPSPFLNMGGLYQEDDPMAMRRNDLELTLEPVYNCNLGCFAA
UniProt O22456: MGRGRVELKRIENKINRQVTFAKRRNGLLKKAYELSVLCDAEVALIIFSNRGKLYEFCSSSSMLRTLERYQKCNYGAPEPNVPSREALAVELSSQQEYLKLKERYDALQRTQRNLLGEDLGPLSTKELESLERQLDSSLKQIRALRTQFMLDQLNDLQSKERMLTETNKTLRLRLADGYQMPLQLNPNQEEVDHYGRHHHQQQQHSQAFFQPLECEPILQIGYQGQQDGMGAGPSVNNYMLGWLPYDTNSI
AtSEP3-T1 (Leu to Ala at position 99), in pGADT7 (O22456, form named): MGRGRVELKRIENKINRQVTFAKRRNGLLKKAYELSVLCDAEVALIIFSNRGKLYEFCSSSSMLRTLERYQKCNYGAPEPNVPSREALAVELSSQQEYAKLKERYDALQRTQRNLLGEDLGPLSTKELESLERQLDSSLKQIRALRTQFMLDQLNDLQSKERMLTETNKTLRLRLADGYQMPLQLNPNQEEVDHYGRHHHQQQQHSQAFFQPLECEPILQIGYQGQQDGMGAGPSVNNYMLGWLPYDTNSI
AtSEP3-T2 (Leu to Ala at positions 99 and 101), in pGADT7 (O22456, form named): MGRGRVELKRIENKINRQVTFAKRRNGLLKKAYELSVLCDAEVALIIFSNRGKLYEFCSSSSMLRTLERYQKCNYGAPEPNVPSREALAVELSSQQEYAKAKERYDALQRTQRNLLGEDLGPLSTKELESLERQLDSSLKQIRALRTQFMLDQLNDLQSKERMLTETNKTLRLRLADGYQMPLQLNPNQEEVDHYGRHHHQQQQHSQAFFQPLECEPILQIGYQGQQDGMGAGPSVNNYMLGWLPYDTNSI
AtSEP3-T3 (Leu to Ala at positions 99, 101, and 108), in pGADT7 (O22456, form named): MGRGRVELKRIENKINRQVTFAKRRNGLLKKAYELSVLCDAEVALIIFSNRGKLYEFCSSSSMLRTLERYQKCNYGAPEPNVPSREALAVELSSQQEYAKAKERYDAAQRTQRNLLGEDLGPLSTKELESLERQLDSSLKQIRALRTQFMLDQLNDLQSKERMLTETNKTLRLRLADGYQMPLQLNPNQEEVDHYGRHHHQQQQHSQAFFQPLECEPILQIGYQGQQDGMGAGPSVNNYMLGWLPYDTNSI
AtSEP3-T4 (Leu to Ala at positions 99, 101, 108, and 115), in pGADT7 (O22456, form named): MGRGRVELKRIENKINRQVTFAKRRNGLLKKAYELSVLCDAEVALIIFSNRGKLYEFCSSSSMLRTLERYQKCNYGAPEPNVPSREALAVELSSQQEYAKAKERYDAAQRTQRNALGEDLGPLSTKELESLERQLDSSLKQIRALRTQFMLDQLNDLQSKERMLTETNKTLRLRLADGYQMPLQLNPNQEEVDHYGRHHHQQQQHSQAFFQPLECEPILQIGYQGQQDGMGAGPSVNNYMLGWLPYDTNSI
AtSEP3-T5 (Leu to Ala at positions 99, 101, 108, 115, and 116), in pGADT7 (O22456, form named): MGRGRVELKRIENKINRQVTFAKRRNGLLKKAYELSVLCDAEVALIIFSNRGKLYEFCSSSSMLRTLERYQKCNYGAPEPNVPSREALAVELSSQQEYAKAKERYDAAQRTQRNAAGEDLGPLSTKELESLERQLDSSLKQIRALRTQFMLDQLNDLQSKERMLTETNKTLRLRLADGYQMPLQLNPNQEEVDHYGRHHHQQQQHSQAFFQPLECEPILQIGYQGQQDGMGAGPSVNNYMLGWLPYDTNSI
AtSEP3-T5, in pSPYCE-35S/PUC (BiFC) (O22456, form named): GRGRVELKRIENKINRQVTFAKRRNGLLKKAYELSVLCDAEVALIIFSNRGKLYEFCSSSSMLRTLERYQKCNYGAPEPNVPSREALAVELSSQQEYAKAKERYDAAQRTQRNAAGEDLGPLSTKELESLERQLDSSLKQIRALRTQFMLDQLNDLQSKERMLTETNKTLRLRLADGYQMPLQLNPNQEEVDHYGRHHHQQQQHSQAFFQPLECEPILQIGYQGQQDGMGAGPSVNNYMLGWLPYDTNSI

binding [1] | binding [2] | binding [3] | Substance
binds | binds | – | AtSEP3 (…3), wild type, in pGADT7 (from UniProt O22456 1-251)
binds | binds | – | AtSEP3-T2 (Leu to Ala at positions 99 and 101), in pGADT7 (from UniProt O22456 1-251)
binds | binds | – | AtSEP3-T4 (Leu to Ala at positions 99, 101, 108, and 115), in pGADT7 (from UniProt O22456 1-251)

Continued, substance first:

Substance | binding [1] | binding [2] | binding [3]
AtSEP3, wild type, in pSPYCE-35S/PUC (BiFC) (from UniProt O22456 2-251) | – | – | binds
AtSEP3-T1 (Leu to Ala at position 99), in pGADT7 (from UniProt O22456 1-251) | binds | binds | –
AtSEP3-T3 (Leu to Ala at positions 99, 101, and 108), in pGADT7 (from UniProt O22456 1-251) | binds | binds | –
AtSEP3-T5 (Leu to Ala at positions 99, 101, 108, 115, and 116), in pGADT7 (from UniProt O22456 1-251) | no binding | no binding | –
AtSEP3-T5, in pSPYCE-35S/PUC (BiFC) (from UniProt O22456 2-251) | – | – | no binding

From PMC11955279
